Laboratory results reported in PubChem BioAssay AID1508623 (National Center for Advancing Translational Sciences (NCATS), 2021).
The whole screen tested about 48,000 compounds, of which about 450 (0.94%) were called active. Another 19% or so got no clear call; they are omitted. Calls follow the shape of the dose curve; as a rule, active = well fitted inhibition curve with a large enough effect; inconclusive = small, poorly fitted or top-dose-only effect; inactive = no such curve, though single readings can be large or run the other way. The list shows a part of the results.

Test: Primary qHTS for Identification of Small Molecule Inhibitors of Huntingtin Promoter Activity; also: nearly all actives have a fitted effect of over 50% in size
Details: HEK293 HTT promoter firefly luciferase reporter (activity 0% = vehicle and -100% = no light), 24 h; series mostly up to 57.5 µM; activity change, negative = inhibition: at the top concentration
How it was run: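 HEK293 Fluc reporter, 2,500 cells/well, 24 h pre-culture; cpds up to 57.5 uM final, 24 h 37 degrees C; Dual-Glo, 10 min RT; normalized vehicle = 0%, zero RLU = -100%.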

Activity change, negative = inhibition, inactive:
COc1cccc(C(=O)N2CCCCC2CCN2CCCCC2)c1 (stereo not given) -7.42%, NC(=O)c1cnc(-c2ccc(C3(N)CCC3)cc2)c(-c2ccccc2)c1 -12.6%, Cc1oc(-c2ccccc2F)nc1CS(=O)CC(=O)NC(C)C (stereo not given) 3.47%, CC/C=C(\C(=O)N[C@@H]1C(=O)N2C(C(=O)OCOC(=O)C(C)(C)C)=C(COC(N)=O)CS[C@H]12)c1csc(N)n1, COc1ccc(OC)c(NC(=O)c2cccc3c2C(=O)N(C2CCCCC2)C3)c1 -19.4%, Cc1cccc(Cn2c(CNS(=O)(=O)c3ccc(C(C)C)cc3)nc3cccnc32)c1 -23.4%, C[C@@H]1O[C@@H](OC[C@H]2O[C@@H](Oc3c(-c4ccc(O)c(O)c4)oc4cc(O)cc(O)c4c3=O)[C@H](O)[C@@H](O)[C@@H]2O)[C@H](O)[C@H](O)[C@H]1O 13%, COc1cc(NC(=O)CN2CCCN(S(=O)(=O)c3ccc(F)cc3)CC2)cc(OC)c1 -23.3%, CCOC(=O)c1cc(S(=O)(=O)Nc2c(C)cc(C)cc2C)[nH]n1 -11.6%, Cc1ccc2nc(-c3ccc(NC(=O)COc4ccccc4C(C)(C)C)cc3)sc2c1 38.8%, CC(=O)NC(C)c1nc2ccccc2n1Cc1ccccc1Cl (stereo not given) 6.57%, Cc1ccc(C)c(NC(=O)C2CCCN2S(=O)(=O)c2ccc3c(c2)n(C)c(=O)c(=O)n3C)c1 (stereo not given) 7.07%, CCOC(=O)CCCCN(Cc1ccccc1F)S(=O)(=O)c1ccc(F)c(C(=O)Nc2cc(Cl)cc(Cl)c2)c1 -37.7%, COc1cc(-c2noc(-c3ccc(NC4CCCC4)c([N+](=O)[O-])c3)n2)cc(OC)c1OC -13.5%, O=C(NCc1ccc(F)cc1)c1nnc(Cc2cccc(F)c2)o1 -19.2%, COc1ccc(C2=NC(C)(C)N(CC(=O)Nc3cc(OC)cc(OC)c3)C2=O)cc1 -1.72%, CN(c1ccc(F)cc1)S(=O)(=O)N1CCCC(C(=O)NCCc2ccccc2)C1 (stereo not given) -22.5%, Cn1c2cc(S(C)=O)sc2c2cnn(Cc3cccc(N)c3)c(=O)c21 (stereo not given) 1.12%, CCN1CCN(c2cc(C)c3cc(NC(=O)/C=C/c4cccc(OC)c4OC)ccc3n2)CC1 -13.6%, CCOc1ccc(S(=O)(=O)NCc2nc3cccnc3n2Cc2ccccc2OC)cc1 -7.84%, CCOC(=O)C1CCN(C(=O)c2ccc3c(c2)sc2nc(-c4ccc(OC)cc4)cn23)CC1 -21.1%, CCCOc1ccc(-c2nc3ccc(Br)cc3c(=O)o2)cc1 14.8%, CC1=C(C(=O)N2CCN(c3ccc(Cl)cc3)CC2)C2(CCC(C)CC2)OC1=O (stereo not given) -20.6%, O=C(Cn1c(=O)n(Cc2ccccc2)c(=O)c2sc3ccccc3c21)Nc1ccc(F)cc1 -13.8%, CCCC(=O)Nc1ccc(OCC(O)CNC(C)C)c(C(C)=O)c1 (stereo not given) 5.52%
